# Experimental data from patent US20160168541A1, “TRANSDUCIBLE MATERIALS FOR CELL REPROGRAMMING” (VIVOSCRIPT, INC., priority 2013, published 2016).
# B1: sGFP-NLS-MyoD(mNES)-11R: Third generation: second generation with the NES of MyoD mutated, SEQ ID NO: 127 (protein)
# chain: MASKGERLFRGKVPILVELKGDVNGHKFSVRGKGKGDATRGKLTLKFICTTGKLPVPWPTLVTTLTYGVQCFSRYPKHMKRHDFFKSAMPKGYVQERTISFKKDGKYKTRAEVKFEGRTLVNRIKLKGRDFKEKGNILGHKLRYNFNSHKVYITADKRKNGIKAKFKIRHNVKDGSVQLADHYQQNTPIGRGPVLLPRNHYLSTRSKLSKDPKEKRDHMVLLEFVTAAGIKHGRDERYKGGSGGSGGSGGSHMAQPLCPPLSESWMLSAAWGPTRRPPPSDKDCGRSLVSSPDSWGSTPADSPVASPARPGTLRDPRAPSVGRRGARSSRLGSGQRQSASEREKLRMRTLARALHELRRFLPPSVAPAGQSLTKAETARLAIRYAGHASAVLGLSEESLQRRCRQRGDAGSPRGCPLCPDDCPAQMQTRTQAEGQGQGRGLGLVSAVRAGASWGSPPACPGARAAPEPRDPPALFAEAACPEGQAMEPSPPSPLLPGDVLALLETWMPLSPLEWLPEEPKESGGGGSPGRRRRRRRRRRR
# B2: sGFP-Oct4(mNES)-11R: Fusion polypeptide of supercharged GFP, Oct4 with mutated NES and 11R, SEQ ID NO: 141 (protein)
# chain: MASKGERLFRGKVPILVELKGDVNGHKFSVRGKGKGDATRGKLTLKFICTTGKLPVPWPTLVTTLTYGVQCFSRYPKHMKRHDFFKSAMPKGYVQERTISFKKDGKYKTRAEVKFEGRTLVNRIKLKGRDFKEKGNILGHKLRYNFNSHKVYITADKRKNGIKAKFKIRHNVKDGSVQLADHYQQNTPIGRGPVLLPRNHYLSTRSKLSKDPKEKRDHMVLLEFVTAAGIKHGRDERYKGGSGGSGGSGGSHMFYSGLLTEGGRKETDMREAASLRQQRRMKQAVQFIHKDSADLLPLDGLKKLGSSKDMQPHNILQRRLMETNLSKLRSGPRVPWASKTNKLNQAKSEGLKKSEEDDMILVSCQCAGKDVKALVDTGCLYNLISLACVDRLGLKEHVKSHKHEGEKLSLPRHLKVVGQIEHAVITAGSLRLDCPAAVVDDNEKNASAGLQTLRSLKCIINLDKHRLIMGKTDKEEIPFVETVSLNEDNTSEAESGGGGSPGRRRRRRRRRRR
# Assays:
# Format in all cases: cell-based
# adult human fibroblasts [1] = assay: Live fluorescent imaging of uptake and nuclear occupancy of sGFP polypeptides in fibroblasts
# Method: FIG. 5. Live fluorescent imaging of human fibroblasts after culturing in 10 μg/ml of first generation sGFP-MyoD-11R.
# In the first generation of transducible materials, a sGFP transduction domain and a poly-arginine (11R) were fused to the N-terminus and C-terminus of MyoD through a linker (SEQ ID NO: 99) respectively to generate sGFP-MyoD-11R (SEQ ID NO: 156). […] The nuclear entry of sGFP-MyoD-11R was increased by using 100 μg/ml sGFP-MyoD-11R and electroporation, which successful reprogrammed very low percentage (around 10%) of FBs to MyoD+ myoblasts.
# The second generation of transducible materials, a strong classic nuclear localization sequence (cNLS), the SV40 T antigen NLS, was added in-between sGFP and MyoD-11R (SEQ ID NO: 157 and FIG. 3).
# Leptomycin B (leptoB), a nuclear export blocker, was added at 5 nM to adult fibroblasts to enhance nuclear occupancy of sGFP-NLS-MyoD-11R. […] Higher concentrations of leptoB might have off-target effects, which limits its use in enhancing nuclear retention of specific polypeptides.
# In the third generation of transducible materials, the NES of MyoD was mutated to generate sGFP-NLS-MyoD(mNES)-11R (SEQ ID NO: 127 and FIG. 3) to further improve their nuclear occupancy and transcription efficiency. […] These SCs were positive for Myf5 (>90% of SCs) at 22 days after transduction (FIG. 8B). Also, these SCs could be induced to differentiate to myoblasts with downregulation of Pax7 and upregulation of MyoD via a published myogenic protocol (Cosgrove et al, Rejuvenation of the muscle stem cell population restores strength to injured aged muscles, Nat Med., 20:255-64 (2014)). […] Thus, by using sGFP-NLS-MyoD(mNES)-11R, efficient fibroblasts conversion to SMPCs can be achieved in a controlled fashion. The risk of extensive durations of MyoD activation is completely avoided. Most myogenic analysis was performed at >2 weeks after polypeptide transduction to avoid confounding issues from added exogenous polypeptides. In summary, adult fibroblast can be successfully reprogrammed to SCs using sGFP-NLS-MyoD(mNES)-11R with defined kinetics (2-day nuclear occupancy and 2-3 week peptide lifespan).
# adult human fibroblasts [2] = assay: Reprogramming of fibroblasts to skeletal muscle progenitor cells (satellite cells, myoblasts)
# Method: FIG. 4. Schematic of experimental protocol to convert fibroblasts to myoblasts with transducible materials derived from MyoD.
# In this example, three versions of transducible materials derived from MyoD (the master myogenic transcription factor) were generated and their effects on reprogramming fibroblast cells into skeletal muscle progenitor cells (SMPCs) were compared.
# Most myogenic analysis was performed at >2 weeks after polypeptide transduction to avoid confounding issues from added exogenous polypeptides.
# [3] = test system: Oct4 target genes (Oct4, Sox2, Nanog, Smad3 and Smad4); assay: RT-qPCR of Oct4 target genes in HepG2 cells treated with transducible materials; details: serum-free medium, 6 hours, normalized by GAPDH, sGFP-treated sample set as 1.00
# Method: FIG. 2. Comparison of sGFP-Oct4(mNES) and sGFP-Oct4 protein in regulating the expression of downstream genes. HepG2 cells were treated with sGFP, sGFP-Oct4 or sGFP-Oct4(mNES) in serum-free medium for 6 hours. RNA was isolated and RT-qPCR was performed. The expression of each gene was normalized by the expression level of GAPDH. The relative expression level of each gene in the control condition (sGFP-treated sample) was set as 1.00.
# HepG2 cells were treated with transducible materials comprising isolated polypeptide of sGFP, sGFP-Oct4-11R or sGFP-Oct4(mNES)-11R in serum-free medium for 6 hours. RNA was extracted from each sample using RNeasy Micro Kit from Qiagen and cDNA was synthesized through reverse transcription reaction. RT-qPCRs of five Oct4 target genes (Oct4, Sox2, Nanog, Smad3 and Smad4 were performed using a pair of primers specific to each target gene and a hydrolysis probe from Roche Universal ProbeLibrary on LightCycler 480 II. The expression of each gene was normalized by the expression level of GAPDH. The relative expression level of each gene in the control condition (sGFP-treated sample) was set as 1.00.
Molecule,"time the polypeptide stays in the nucleus (adult human fibroblasts [1]; 10 μg/ml, leptomycin B 5 nM)","nuclear occupancy (GFP signal in nuclei) with leptomycin B (adult human fibroblasts [1]; 10 μg/ml, leptomycin B 5 nM, third generation at 30 min, 24 hours and 48 hours)",nuclear occupancy (summary of kinetics) (adult human fibroblasts [1]; adult fibroblasts),GFP signal of the polypeptide late after application (adult human fibroblasts [1]; after 22 days after the polypeptide application),time in culture until fully degraded (peptide lifespan) (adult human fibroblasts [1]; fluorescent imaging of the sGFP),time after transduction at which polypeptides were almost completely exported from nuclei to cytoplasm (adult human fibroblasts [1]; regardless of the existence of leptomycin B),conversion of human fibroblasts to satellite cells (marker staining) (adult human fibroblasts [2]; 18-22 D after exposure to polypeptide and leptomycin B),SCs positive for Myf5 (adult human fibroblasts [2]; at 22 days after transduction),"adult fibroblasts converted to Pax7+/MyoD− satellite cells (adult human fibroblasts [2]; third generation, leptomycin B)",expression of Oct4 target genes [3]
B1,48 to 72 h,Strong GFP signal was observed in nuclei,2 days,No GFP signal,2-3 weeks,> 72 h,converted to Pax7+/Myf5+ SCs,> 90 % of SCs,> 90%,
B2,,,,,,,,,,significantly increase
